Measurements taken from PubChem BioAssay AID1159614 (National Center for Advancing Translational Sciences (NCATS), 2016).
About 65 (0.1%) of roughly 45,000 compounds were called active. Calls come from the whole dose curve; as a rule, active = well fitted activation curve with a large enough effect; inconclusive = small, poorly fitted or top-dose-only effect; inactive = no such curve, though single readings can be large or run the other way. Some of the results follow.

What follows are compounds tested against Galactocerebrosidase (Homo sapiens) (UniProt P54803) (assay: A Novel Cell-Based Assay to Identify Small Molecules for B -Galactocerebrosidase). Settings: 145M-Twi-hGALC-G270D cells, HMU-beta-Gal fluorescence, 48 h; series mostly up to 57.5 µM; activation: at the top concentration.
Chain of UniProt P54803 (P54803 whole entry, looked up): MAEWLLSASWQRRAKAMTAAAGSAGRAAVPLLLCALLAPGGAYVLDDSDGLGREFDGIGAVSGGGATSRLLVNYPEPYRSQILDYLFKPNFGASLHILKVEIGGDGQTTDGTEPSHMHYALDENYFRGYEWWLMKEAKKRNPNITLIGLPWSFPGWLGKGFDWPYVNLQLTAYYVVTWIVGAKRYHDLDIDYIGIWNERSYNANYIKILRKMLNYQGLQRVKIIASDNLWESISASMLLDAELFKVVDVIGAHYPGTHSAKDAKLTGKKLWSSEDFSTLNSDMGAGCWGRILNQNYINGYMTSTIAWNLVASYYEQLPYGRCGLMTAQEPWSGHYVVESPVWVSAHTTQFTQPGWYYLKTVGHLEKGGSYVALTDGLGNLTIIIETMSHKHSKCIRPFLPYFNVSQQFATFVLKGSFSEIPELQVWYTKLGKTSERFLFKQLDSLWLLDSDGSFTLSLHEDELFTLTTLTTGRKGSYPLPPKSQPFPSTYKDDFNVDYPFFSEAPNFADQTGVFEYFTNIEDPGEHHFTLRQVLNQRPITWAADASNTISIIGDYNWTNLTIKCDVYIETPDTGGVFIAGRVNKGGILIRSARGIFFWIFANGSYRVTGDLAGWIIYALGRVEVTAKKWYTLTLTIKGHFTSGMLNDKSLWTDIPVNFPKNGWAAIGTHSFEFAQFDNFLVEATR
Procedure, shortened: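 qHTS, 1536-well; 145M-Twi-hGALC-G270D cells (WT line also made) in DMEM/F12 + 10% FBS; compound incubation on live cells; HMU-β-gal 0.1 mM final, pH 5.2, NaTC; carbonate stop; fluorescence increase = enhanced residual activity.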
Note: 0% is about no effect; nearly all actives have a fitted effect of over 65% in size.

Row | SMILES | activation
1 | CCCNC(=O)N1[C@H](c2ccc(C)s2)[C@@H](C)C(=O)[C@@H](C)[C@@H]1c1ccc(C)s1 | inactive: -12.2%
2 | CC(C)c1ccc(OC(=O)c2cc(-c3ccc(Cl)cc3)on2)cc1 | inactive: 14.3%
3 | COc1ccc(CC(=O)NCC(c2ccc(N(C)C)cc2)N2CCOCC2)cc1 (stereo unspecified) | inactive: -8.93%
4 | Cc1ccc(-n2ncc3c(NCCCn4ccnc4)ncnc32)cc1Cl | inactive: -12.4%
5 | COc1ccc(-n2c(=O)c3sc4ccccc4c3n(CC(=O)Nc3ccccc3F)c2=O)cc1 | inactive: -8.13%
6 | O=C1c2[nH]nc(-c3ccccc3O)c2C(c2ccccc2F)N1Cc1ccncc1 (stereo unspecified) | inactive: -13%
7 | NC(=O)COCCN1CCN(C(c2ccccc2)c2ccc(Cl)cc2)CC1 (stereo unspecified) | inactive: -17.4%
8 | CCOC(=O)Cc1ccc(NC(=O)NCc2cccn2Cc2ccccc2)cc1 | inactive: -13.2%
9 | CC(C)C1CCC(C(=O)N[C@H](Cc2ccccc2)C(=O)O)CC1 (stereo partly specified) | inactive: -33.9%
10 | Cc1oc(-c2ccc(Cl)cc2)nc1CN1CCC(C(=O)NCCCN2CCN(c3cccc(Cl)c3)CC2)CC1 | inactive: -0.573%
11 | Cc1ccc2c(c1)NC(=O)C(CC(=O)Nc1ccccc1Cl)O2 (stereo unspecified) | inactive: -8.73%
12 | O=C1Nc2ccccc2C1(c1ccc(O)cc1)c1ccc(O)cc1 | inactive: -0.221%
13 | Cc1ccc(Nc2nnc(-c3ccc(C)c(S(=O)(=O)N4CCOCC4)c3)c3ccccc23)c(C)c1 | inactive: -16.4%
14 | CCc1nc2nc(C)cc(Nc3ccc(OC)cc3OC)n2n1 | inactive: 1.21%
15 | CCC(Cc1ccccc1)NC(=O)Cn1ncc2c3ccccc3n(Cc3ccccc3)c2c1=O (stereo unspecified) | inactive: -6.66%
16 | CCOc1ccc(C(=O)c2cn(Cc3ccc(Cl)cc3)c3cc(OC)c(OC)cc3c2=O)cc1 | inactive: -8.89%
17 | Cc1ccc(Cl)cc1N1CCN(C(=O)c2cc(S(=O)(=O)N3CCCC3)cn2C)CC1 | inactive: -5.17%
18 | Cc1cc(C)n2nc(SCC(=O)Nc3ccccc3C)nc2n1 | inactive: -7.74%
19 | Cc1ccc(C)c(CN2C(=O)c3ccccc3S(=O)(=O)c3ccc(C(=O)N4CCN(c5ccccn5)CC4)cc32)c1 | inactive: -11%
20 | CCCN1C(=O)C(Cc2nc3ccccc3c(=O)n2-c2ccccc2)c2cc(C)ccc21 (stereo unspecified) | inactive: -39.8%
21 | CCc1cccc(N2C(=O)N(CC(=O)NCc3cccc(OC)c3OC)c3ccccc3S2(=O)=O)c1 | inactive: -1.09%

Row | SMILES | activation
22 | COc1cc(NC(=O)CN2C(=O)COc3ccc(S(=O)(=O)N4CCCCC4)cc32)cc(OC)c1 | inactive: -6.55%
23 | COc1ccc(C)cc1NC(=O)NCc1ccc2c(c1)CCN2C(=O)c1ccccc1 | inactive: -1.11%
24 | Cc1ccc(NC(=O)Cn2c(=O)n(-c3ccccc3)c(=O)c3c4c(sc32)CCCC4)cc1 | inactive: -17.8%
25 | COc1ccc(C)cc1Nc1nc2cc(Cl)c(Cl)cc2nc1-n1nc(C)cc1C | inactive: -16.2%
26 | COc1ccc(C)cc1NC(=O)CSc1nc(=O)n(Cc2ccncc2)c2c1CCC2 | inactive: -6.25%
27 | C=Cc1ccc(CN2C(=O)N(c3ccc(CC)cc3)S(=O)(=O)c3ccccc32)cc1 | inactive: 12.4%
28 | COc1ccc(C(=O)NCCc2sc(-c3ccc(Cl)cc3)nc2C)c(OC)c1 | inactive: -36.8%
29 | COCCNC(=O)c1ccc(CSc2nc3ccncc3n2Cc2ccccc2)cc1 | inactive: -5.54%
30 | O=C(CSc1ncc2c(n1)-c1ccccc1N(Cc1ccccc1)S2(=O)=O)Nc1ccccc1 | inactive: -0.725%
31 | CCOC(=O)COc1ccc(C)cc1C(=O)c1ccn2nc(-c3ccc(C)cc3)cc2n1 | inactive: -7.65%
32 | COC(=O)c1ccc(OCC2c3cc(OC)c(OC)cc3CCN2C(=O)C(C)C)cc1 (stereo unspecified) | inactive: -11.9%
33 | CCOc1ccc(NC(=O)c2c(NC(=O)Cc3ccccc3)sc3c2CCC(C)C3)cc1 (stereo unspecified) | inactive: -11.4%
34 | COc1ccc(OC)c(NC(=O)CN(C)S(=O)(=O)c2ccc3[nH]c4c(c3c2)CCCC4)c1 | inactive: -8.79%
35 | CCC(=O)N1CCc2cc(S(=O)(=O)CCC(=O)N3CCN(c4cc(C)ccc4C)CC3)ccc21 | inactive: -9.98%
36 | COc1cccc(NC(=O)CSc2nc3ccccc3n2C)c1 | inactive: -9.84%
37 | CCn1c(=O)cc(SCC(=O)NCCc2cc(OC)ccc2OC)c2ccccc21 | inactive: -13.4%
38 | Cc1nnc(N2CCC(C(=O)NC3CCCCC3)CC2)c2nn(-c3ccc(Cl)cc3)c(C)c12 | inactive: -10.3%
39 | CCOc1ccc(NC(=O)c2c(NCc3ccc(C)o3)sc3c2CCC(C)C3)cc1 (stereo unspecified) | inactive: -11.1%
40 | CCOc1ccc(C(=O)NCC(c2ccc3c(c2)OCO3)N2CCN(c3ccccc3F)CC2)cc1 (stereo unspecified) | inactive: 4.17%
41 | Cc1ccc(NC(=O)Cn2c(=O)n(Cc3ccco3)c(=O)c3ccc(C(=O)NC4CCCC4)cc32)c(C)c1 | inactive: -6.65%
42 | COCCCNC(=O)C1CCN(Cc2nc(-c3ccc(OC)c(OC)c3)oc2C)CC1 | inactive: -0.683%

Row | SMILES | activation
43 | COc1ccc(Cn2nnc(C(=O)Nc3cc(OC)ccc3OC)c2N)cc1 | inactive: 8.41%
44 | COc1ccc(OC)c(CCNC(=O)c2c(C)nn(-c3ccc(F)cc3)c2-n2cccc2)c1 | inactive: -10.7%
45 | O=C(c1cccc(Cl)c1)N1CCN(CCc2ccccn2)CC1 | inactive: -1.93%
46 | CCOc1ccc(NC(=O)Cn2nc(-c3ccncc3)ccc2=O)cc1 | inactive: -14.7%
47 | CCCCNC(=O)c1c(C)oc2ncn(CC(C)C)c(=O)c12 | inactive: -12.7%
48 | Cc1ccccc1OCC(=O)Nc1cc(-c2cccc(Br)c2)nn1-c1ccccc1 | inactive: -12.1%
49 | O=C(NCc1nc2cccnc2n1Cc1ccc(F)cc1)c1ccccc1C(F)(F)F | inactive: -8.7%
50 | COc1ccc(NC(=O)Cn2c(=O)n(CCc3ccccc3)c(=O)c3ccccc32)cc1 | inactive: -9.94%
51 | COc1ccc2nc(NC(=O)c3cc(=O)c4ccccc4o3)sc2c1 | inactive: -11.1%
52 | Cc1noc(-c2ccc(NCc3ccccc3)c([N+](=O)[O-])c2)n1 | inactive: -5.89%
53 | COc1cccc(CNS(=O)(=O)c2cc3c(cc2C)n(C)c(=O)c(=O)n3C)c1 | inactive: -13.7%
54 | COC(=O)c1c(N)n(-c2cc(Cl)cc(Cl)c2)c2nc3ccccc3nc12 | inactive: 21.2%
55 | CCC(=O)N1CCc2cc(Br)cc(S(=O)(=O)N3CCCC(C(=O)NCc4ccccc4)C3)c21 (stereo unspecified) | inactive: -2.08%
56 | Cc1noc(/C=C/c2ccccc2F)c1S(=O)(=O)N1CCC(C(=O)N(C)Cc2ccco2)CC1 | inactive: -2.32%
57 | Cc1ccccc1CN1C(=O)c2ccccc2Sc2ccc(C(=O)NCc3cccs3)cc21 | inactive: -11.9%
58 | COc1ccccc1CNCCSc1nnnn1C | inactive: -2.61%
59 | Nc1c(-c2nc(-c3ccncc3)no2)nnn1CC(=O)Nc1ccccc1 | inactive: 0.558%
60 | COc1ccc(C(=O)N(Cc2ccco2)Cc2ccco2)cc1 | inactive: -8.85%
61 | COc1cccc(NC(=O)Cn2c(=O)n(-c3ccc(Cl)cc3)c(=O)c3sc4ccccc4c32)c1 | inactive: -11.7%
